Reference: publication PMC4336329 (PLoS ONE, 2015)
Among all 310,000 compounds or so, about 14,000 (4.5%) showed an effect of 50% or more. The effect is printed as a negative number. Some of the results follow.

Target: human ether-à-go-go-related gene (hERG) potassium channel (human, UniProt Q12809)
Experiment: primary screen, population patch clamp on CHO cells stably expressing hERG
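Further: peak tail current of the secondary pulse compared with the same well before compound.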

Chain of human ether-à-go-go-related gene (hERG) potassium channel (Q12809 whole entry, looked up): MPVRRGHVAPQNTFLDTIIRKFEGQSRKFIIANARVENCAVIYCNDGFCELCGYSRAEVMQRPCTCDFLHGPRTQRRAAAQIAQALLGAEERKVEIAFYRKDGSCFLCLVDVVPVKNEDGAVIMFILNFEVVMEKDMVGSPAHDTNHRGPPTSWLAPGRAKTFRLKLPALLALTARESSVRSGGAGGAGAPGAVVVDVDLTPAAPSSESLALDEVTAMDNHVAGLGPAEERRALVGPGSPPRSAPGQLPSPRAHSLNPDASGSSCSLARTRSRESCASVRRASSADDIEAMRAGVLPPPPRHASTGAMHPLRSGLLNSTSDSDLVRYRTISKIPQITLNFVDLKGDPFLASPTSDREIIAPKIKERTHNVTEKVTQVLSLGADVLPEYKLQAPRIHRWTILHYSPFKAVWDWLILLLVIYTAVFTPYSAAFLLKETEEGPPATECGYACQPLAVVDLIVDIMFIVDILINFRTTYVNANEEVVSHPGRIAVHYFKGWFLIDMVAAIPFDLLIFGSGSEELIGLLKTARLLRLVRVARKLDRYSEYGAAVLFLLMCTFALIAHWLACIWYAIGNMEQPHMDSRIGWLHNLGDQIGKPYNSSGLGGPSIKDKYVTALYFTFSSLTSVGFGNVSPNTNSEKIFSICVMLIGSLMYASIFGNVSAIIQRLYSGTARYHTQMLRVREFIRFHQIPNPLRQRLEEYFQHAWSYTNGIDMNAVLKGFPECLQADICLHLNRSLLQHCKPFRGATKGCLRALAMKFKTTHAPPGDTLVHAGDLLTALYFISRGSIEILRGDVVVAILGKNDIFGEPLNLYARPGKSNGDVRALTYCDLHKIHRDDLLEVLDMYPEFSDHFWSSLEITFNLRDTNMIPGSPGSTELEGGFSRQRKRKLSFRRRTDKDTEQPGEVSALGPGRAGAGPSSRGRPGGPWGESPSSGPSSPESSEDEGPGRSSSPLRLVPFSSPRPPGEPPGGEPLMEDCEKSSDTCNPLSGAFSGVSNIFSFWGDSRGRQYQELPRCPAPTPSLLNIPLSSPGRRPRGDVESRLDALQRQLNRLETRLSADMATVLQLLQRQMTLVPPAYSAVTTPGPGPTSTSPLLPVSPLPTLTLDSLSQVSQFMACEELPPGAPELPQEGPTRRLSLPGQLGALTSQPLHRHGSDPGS

First: COc1cccc(C(=O)Nc2nc(SCc3ccc(Cl)cc3)n[nH]2)c1
Second: COc1ccc(Cc2nnc(Nc3ccc(Cl)cc3)[nH]c2=O)cc1
The “hERG current change (%, negative = inhibition) at 10uM” value of the first is lower: 5.27% for the first, 21.3% for the second.

Going from `O=C(CC1Oc2ccccc2NC1=O)NC1CCCC1` (stereo not drawn) to `O=C(NC1CCCCCC1)c1cc2n(n1)C(C(F)(F)F)CC(c1ccco1)N2` (stereo not drawn), the “hERG current change (%, negative = inhibition) at 10uM” value falls from 9.49% to -6.84%.

Compared with `COc1ccc(NC(=O)CSc2nccn2Cc2ccco2)c(OC)c1`, `COc1ccc(NC(=O)CSc2nc3c(c(=O)n2-c2ccccc2)SCC3)c(OC)c1` is lower in “hERG current change (%, negative = inhibition) at 10uM” value: 5.93% for the first, -4.61% for the second.

Compared with `CCOC(=O)c1c(NC(=S)Nc2ccc(Cl)cc2)sc2c1CCN(C)C2`, `COC(=O)c1c(NC(=O)CSc2nnnn2-c2ccccc2)sc2c1CCC(C(C)(C)C)C2` (stereo not drawn) is higher in “hERG current change (%, negative = inhibition) at 10uM” value: -74.2% for the first, -1.38% for the second.

Going from `NC(=O)c1cc(C(=O)Cc2ccccc2)c[nH]1` to `Cc1ccc(NCC(=O)c2ccccc2)cc1Cl`, the “hERG current change (%, negative = inhibition) at 10uM” value falls from 16.4% to 12.3%.

First: COc1cccc(NC(=O)Nc2cc(C(=O)O)ccc2N2CC3CC(C2)c2cccc(=O)n2C3)c1 (stereo not drawn)
Second: COc1ccc(/C=C2\Oc3cc(OCC(=O)N4CCC[C@H]4C(=O)O)ccc3C2=O)c(OC)c1
The “hERG current change (%, negative = inhibition) at 10uM” value of the first is higher: 8.25% for the first, 4.43% for the second.

Compared with `Cc1cc(Cl)ccc1OCCCC(=O)NNC(=O)c1ccccc1O`, `Cc1ccc(NC(=O)c2cccc(NC(=O)CCC(=O)O)c2)cc1C` is higher in “hERG current change (%, negative = inhibition) at 10uM” value: 5.88% for the first, 26% for the second.

Going from `NS(=O)(=O)c1ccc(NS(=O)(=O)c2ccc3c(c2)OCCO3)cc1` to `NS(=O)(=O)c1ccc(CCNC(=O)c2ccc([N+](=O)[O-])cc2[N+](=O)[O-])cc1`, the “hERG current change (%, negative = inhibition) at 10uM” value falls from 20.1% to 3.48%.

Going from `CC(=O)Nc1ccc(S(=O)(=O)NCCC(=O)OCC(=O)NNC(=O)c2ccccc2)cc1` to `COc1ccc(-c2noc(CNS(=O)(=O)c3ccc(NC(C)=O)cc3)n2)cc1`, the “hERG current change (%, negative = inhibition) at 10uM” value rises from -5.23% to 8.15%.

First: Cc1ccc(C(=O)OC(C)C(=O)NC2CCCCC2C)cc1S(=O)(=O)N1CCOCC1 (stereo not drawn)
Second: COCC(C)NC(=O)c1cc(S(=O)(=O)N2CCCCC2)ccc1N1CCOCC1 (stereo not drawn)
The “hERG current change (%, negative = inhibition) at 10uM” value of the first is lower: -5.61% for the first, 7.88% for the second.

Compared with `CCOC(=O)CC1=C(C(=O)OCC)C2(C(=O)Nc3ccccc32)C(C#N)=C(N)O1` (stereo not drawn), `CCOC(=O)C1=C(C)OC(N)=C(C#N)C1c1cc(C)sc1C` (stereo not drawn) is lower in “hERG current change (%, negative = inhibition) at 10uM” value: -0.505% for the first, -25.5% for the second.

Compared with `COc1ccc(C(=O)N/N=C/c2ccc(OC)c(OS(=O)(=O)c3ccccc3)c2)cc1`, `CCOc1ccc(C(=O)/C=C/c2ccc(OC)c(OC)c2)cc1` is lower in “hERG current change (%, negative = inhibition) at 10uM” value: 6.52% for the first, 3.72% for the second.

Going from `CC(=O)Nc1cccc(C(=O)N/N=C/c2c[nH]c3ccccc23)c1` to `O=C(NN1C(=O)c2ccccc2NC1c1ccc([N+](=O)[O-])o1)c1ccccc1` (stereo not drawn), the “hERG current change (%, negative = inhibition) at 10uM” value falls from 13.8% to -9.78%.

First: CC(C)c1nc2oc3c(NCc4cccnc4)ncnc3c2c2c1CCC2
Second: COc1cccc(CN2CCNC(=O)C2CC(=O)NCc2cc(C(C)C)no2)c1 (stereo not drawn)
The “hERG current change (%, negative = inhibition) at 10uM” value of the first is lower: -50.2% for the first, 6.71% for the second.

Compared with `CCC(C)[C@H](NC(=O)[C@@H]1Cc2ccccc2CN1C(=O)OC(C)(C)C)C(=O)NCC1CCC(C(=O)O)CC1` (stereo partly drawn), `CCOC(=O)c1ccccc1NC(=O)c1cccc2c1C(=O)N(C1CCN(C(=O)OCC)CC1)C2` is lower in “hERG current change (%, negative = inhibition) at 10uM” value: 7.33% for the first, -30.4% for the second.

Compared with `Cc1ccccc1CCN(C(=O)c1csnn1)C(C(=O)NC1CCCC1)c1ccncc1` (stereo not drawn), `CCCCC(C(=O)NC1CCCC1)N(Cc1ccco1)C(=O)Cn1nnc(-c2ccc(F)cc2)n1` (stereo not drawn) is higher in “hERG current change (%, negative = inhibition) at 10uM” value: -42.1% for the first, -28.8% for the second.

Going from `O=[N+]([O-])c1cnc2nc(-c3ccncc3)nn2c1[O-].[Na+]` to `CCn1cc(CNC(=O)c2ccc(Cl)c([N+](=O)[O-])c2)c(C)n1`, the “hERG current change (%, negative = inhibition) at 10uM” value falls from 47.9% to -6.98%.

Compared with `Cc1c(NC(=O)c2cc(-c3ccc(Cl)s3)nc3ccccc23)c(=O)n(-c2ccccc2)n1C`, `CCC(=O)NC(Nc1c(C)n(C)n(-c2ccccc2)c1=O)C(Cl)(Cl)Cl` (stereo not drawn) is higher in “hERG current change (%, negative = inhibition) at 10uM” value: -10.8% for the first, 4.98% for the second.

Going from `CC(=O)ON1C(C)(C)Cc2noc(N)c2C1(C)C` to `CC(=O)C1=C(C)NC(=O)NC1c1cccc(O)c1` (stereo not drawn), the “hERG current change (%, negative = inhibition) at 10uM” value rises from 10.2% to 23.8%.

First: O=C(NC(=S)Nc1ccc(F)cc1)C1CCCCC1
Second: Cn1c(CCNC(=O)c2ccco2)nc2cc(NC(=O)C3CCCCC3)ccc21
The “hERG current change (%, negative = inhibition) at 10uM” value of the first is higher: 13.4% for the first, -22.7% for the second.

Compared with `COc1ccc(COCCN2CCN(S(=O)(=O)c3ccc(C)cc3)CCC2=O)cc1`, `COc1ccc(NC(=O)N2CCN(c3ccc([N+](=O)[O-])cc3)CC2)cc1` is lower in “hERG current change (%, negative = inhibition) at 10uM” value: -16% for the first, -36.9% for the second.

Compared with `O=C(O)c1ccc(-c2nnc(-c3ccccc3)o2)cc1`, `CCS(=O)(=O)Nc1ccc(-c2nnc(SCC(=O)c3cccc(OC)c3)o2)cc1` is higher in “hERG current change (%, negative = inhibition) at 10uM” value: 5.3% for the first, 9.41% for the second.

Going from `CN1C(=O)[C@H]2[C@@H](/C=C/c3ccccc3)N3C(=O)CN(Cc4ccccn4)C(=O)[C@@]3(C)[C@H]2C1=O` to `Cc1c(=O)n(OCc2ccccn2)c2ccccc2[n+]1[O-]`, the “hERG current change (%, negative = inhibition) at 10uM” value falls from 14.2% to 10.9%.

First: Cn1cc(-c2ccccc2C(N)=O)c(=O)c2ccccc21
Second: Nc1ccccc1-n1c(=O)n(Cc2ccccc2F)c(=O)c2[nH]cnc21
The “hERG current change (%, negative = inhibition) at 10uM” value of the first is lower: 5.37% for the first, 12.2% for the second.

Compared with `CC(C)N1CCC(N2CCN(Cc3ccc(Oc4ncccn4)cc3)CC2CCO)CC1` (stereo not drawn), `O=C(NCC(=O)N1CCN(Cc2ccccc2)CC1)c1ccc(Br)cc1` is lower in “hERG current change (%, negative = inhibition) at 10uM” value: 23.9% for the first, -53.5% for the second.

Compared with `CNC(=O)CN(C1CCCCC1)S(=O)(=O)c1ccc(OC)c(Cl)c1`, `COc1ccc(C(=O)NCCSC2CCCCC2)cc1` is lower in “hERG current change (%, negative = inhibition) at 10uM” value: 12.5% for the first, -15.8% for the second.

Going from `CC(C)(C)C1CCc2onc(C(=O)Nc3ccc(F)cc3F)c2C1` (stereo not drawn) to `CC(C)n1c(SCC(=O)Nc2ccc(F)cc2)nnc1C1CC1`, the “hERG current change (%, negative = inhibition) at 10uM” value falls from 0.544% to -50.1%.

Going from `Cc1ccc[n+](CC(=O)Nc2cc(C(F)(F)F)ccc2N2CCOCC2)c1.[Cl-]` to `Cc1[nH]c(C)c(S(=O)(=O)N2CCN(c3cccc(C(F)(F)F)c3)CC2)c1C(=O)N1CCCC1`, the “hERG current change (%, negative = inhibition) at 10uM” value falls from 35.9% to -28.4%.

First: Cc1cccc(NC(=O)c2ccc([N+](=O)[O-])s2)c1C
Second: Cc1cccc(NC(=O)c2ccc(S(=O)(=O)N(C)CC3CCCO3)cc2)c1C (stereo not drawn)
The “hERG current change (%, negative = inhibition) at 10uM” value of the first is higher: 10.1% for the first, 6.92% for the second.

Going from `Cc1c(Br)c([N+](=O)[O-])nn1C(C)C(=O)Nc1nccs1` (stereo not drawn) to `Cc1ccc([N+](=O)[O-])cc1NC(=S)NC(=O)C(C)(C)C`, the “hERG current change (%, negative = inhibition) at 10uM” value rises from -4.3% to 3.44%.

Compared with `Cc1cccc([C@H](NC(=O)OC(C)(C)C)C(=O)OC(C)(C)C)c1`, `CC(C)(Oc1ccc(Cl)cc1)C(=O)O` is higher in “hERG current change (%, negative = inhibition) at 10uM” value: -2.76% for the first, 18.4% for the second.

Compared with `CC(C)c1cccc(C(C)C)c1NC(=O)CCN1C(=O)NC2(CCCC2)C1=O`, `CCc1ccc(/C=C2/SC(=S)N(CCC(=O)NCCCN3CCOCC3)C2=O)cc1` is lower in “hERG current change (%, negative = inhibition) at 10uM” value: 3.24% for the first, -23.5% for the second.

Compared with `Cc1ccc(NC(=O)Cn2nnc3ccccc32)cc1`, `O=S1(=O)N=C(Nc2ccc(O)cc2)c2ccccc21` is higher in “hERG current change (%, negative = inhibition) at 10uM” value: 12.1% for the first, 31.9% for the second.

Compared with `Cn1cccc1Cc1nnc(SCC(=O)Nc2ccc3c(c2)OCO3)n1-c1ccc(F)cc1`, `COc1ccc2c(CC(=O)OCC(=O)Nc3ccc4c(c3)OCO4)coc2c1` is higher in “hERG current change (%, negative = inhibition) at 10uM” value: -11% for the first, -8.08% for the second.

First: CC(=O)NS(=O)(=O)c1ccccc1
Second: CC(=O)N1CC(=O)N(c2ccccc2)C1=O
The “hERG current change (%, negative = inhibition) at 10uM” value of the first is lower: 9.31% for the first, 11.5% for the second.

Going from `CC(=O)c1ccc(NC(=O)CCC(=O)N2CC(C)Oc3ccc(C)cc32)cc1` (stereo not drawn) to `COc1ccc(NC(=O)C2CC(c3c(F)cccc3Cl)=NO2)cc1` (stereo not drawn), the “hERG current change (%, negative = inhibition) at 10uM” value rises from 4.13% to 4.16%.

Going from `CCN(CC)S(=O)(=O)c1ccc(OCC(=O)NCc2ccco2)cc1` to `CCOc1ccc(Br)cc1S(=O)(=O)Nc1cccc(S(=O)(=O)N(CC)CC)c1`, the “hERG current change (%, negative = inhibition) at 10uM” value falls from -0.226% to -4.53%.

Going from `CCOC(=O)c1ccc2c(c1)sc(=NC(=O)c1ccco1)n2CCOC` to `Cc1nc2sc(C(c3ccc(Cl)cc3)N3CCN(C(=O)c4ccco4)CC3)c(O)n2n1` (stereo not drawn), the “hERG current change (%, negative = inhibition) at 10uM” value falls from 1.55% to -60.1%.

Going from `CCC(C)NC(=O)CN1C(=O)C(CC)Sc2ccccc21` (stereo not drawn) to `CCN1C(Nc2ccccc2)=NC[C@@H]1CC(C)C`, the “hERG current change (%, negative = inhibition) at 10uM” value rises from -9.34% to 3.75%.

Compared with `CC(Sc1nnc(COc2ccccc2)n1Cc1ccccc1)C(=O)O` (stereo not drawn), `Cc1sc2ncnc(SC(C)C(=O)N3c4ccccc4Sc4ccccc43)c2c1C` (stereo not drawn) is lower in “hERG current change (%, negative = inhibition) at 10uM” value: 17% for the first, 1.49% for the second.

Compared with `Cc1cc(CO)nn1-c1ccc([N+](=O)[O-])cc1`, `Cc1cc(=O)oc(C)c1C(=O)Nc1ccc2ncccc2c1` is lower in “hERG current change (%, negative = inhibition) at 10uM” value: 16.3% for the first, -18.6% for the second.

Compared with `CCCCCCC1CC(CSc2ncn[nH]2)OC1=O` (stereo not drawn), `COc1ccc2cc(CN(CCCN3CCOCC3)Cc3nnnn3C3CCCCC3)c(=O)[nH]c2c1` is higher in “hERG current change (%, negative = inhibition) at 10uM” value: -28.2% for the first, -26.5% for the second.

First: COC(=O)c1nc(Cl)c(Cl)c(N)c1Cl
Second: COC(=O)CSc1nnc(CNc2ccc(OC)cc2)n1C
The “hERG current change (%, negative = inhibition) at 10uM” value of the first is lower: -17.5% for the first, 7.3% for the second.

For `COc1ccc(CCCc2nc3ccccc3[nH]2)cc1`, the “hERG current change (%, negative = inhibition) at 10uM” value was -21.3%.
